Assay results reported in PMC7718735.
Results are given in words; binding and its absence hold for the method and conditions named. Some entries that bind do so weakly or less than the wild type.

T1: Lem2 MYTH bait (S. pombe) (UniProt Q10109)
T1 sequence: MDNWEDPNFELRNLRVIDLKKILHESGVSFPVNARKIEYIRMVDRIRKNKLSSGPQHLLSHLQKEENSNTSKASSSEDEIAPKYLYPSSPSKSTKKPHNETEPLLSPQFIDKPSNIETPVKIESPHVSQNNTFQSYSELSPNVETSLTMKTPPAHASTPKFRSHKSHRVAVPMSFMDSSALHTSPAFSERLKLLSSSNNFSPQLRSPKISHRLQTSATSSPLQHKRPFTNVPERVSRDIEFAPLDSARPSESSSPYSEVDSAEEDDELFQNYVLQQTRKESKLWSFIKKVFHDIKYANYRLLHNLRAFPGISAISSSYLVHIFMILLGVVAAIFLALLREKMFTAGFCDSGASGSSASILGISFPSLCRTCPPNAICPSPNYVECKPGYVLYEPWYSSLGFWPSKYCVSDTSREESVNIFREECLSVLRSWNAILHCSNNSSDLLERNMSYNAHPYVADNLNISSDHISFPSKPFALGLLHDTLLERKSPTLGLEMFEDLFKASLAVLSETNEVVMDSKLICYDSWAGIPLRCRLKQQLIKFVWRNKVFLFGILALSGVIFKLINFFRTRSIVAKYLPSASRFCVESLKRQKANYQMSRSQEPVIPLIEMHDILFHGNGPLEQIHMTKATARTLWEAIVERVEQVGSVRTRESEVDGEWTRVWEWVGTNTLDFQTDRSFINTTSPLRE


target: T1, Lem2 MYTH bait (S. pombe); experiment: two-hybrid; split-ubiquitin membrane yeast two-hybrid (MYTH) in S. cerevisiae; bait-Cub-LexA-VP16 strains mated with the arrayed Nub prey library, diploids spotted in quadruplicate on SD-leu-trp-ade-his with 25 mM 3-AT, imaged every 24 hr for 4 days; positive by a colony density cutoff

Row | binding | Binder
1 | no binding | Raf2 MYTH prey (protein, UniProt O74560 1-636) MPPVRAEKKRKTDLIEQVCVTNKAGELVDLEDVLEYGPYSLTGILSSEKDEQEPLFDESIVLGYSIKISPVWTYNLKDVPEKETMSIWIVTPQRRYGILSPSSEYKAIYEQISEKNRLFYLIKTKFKDDMISGTLEDYDNYIEVLKEKLELPSCFQAILLVQKHIRFLLTQMVATSSLHVWSESPFFIRIRSSYEHLILQINKNIYNARQERKKSKLSSNNPSDNNTTMKSSLNQALTLINLPEQPFSISSPTATPQLGVVKRTSPLRFPLNDIWLSGLRIVDPNIESISLWKRIQVSTSPKHQRYISLQEVCSVIAQQLQITNLEALNKLSSHGETLLQIMHTAFTWRGTKLFNDIKHAIGFRSSVQQARSQFRGYCYDYLFMHCNNGEKTSLHLLRTLICMKLDFSNAQLAAKILFHFLLFDIGSGLSGSDYTYEQYINHSAVAFSFTEEIFEKNFVTVLPDFVKLFSISFGYWPAFSFYDELLKLLRNKYPKVYSSTPNLCDQVWLDRTNLFPCNRSTRSTLPYRPTKLLDLASASSCLSKKETDFKQDTGLYSYNLEKVEALKVSPDLQTGIWSCPVQNCLYFAVCDNPYKPSQVIYDHLLGHVDSKFIFKTPSNSVRSFTNKLEHIMYNIN
2 | no binding | Swi6 MYTH prey (protein, UniProt P40381 1-328) MKKGGVRSYRRSSTSKRSVIDDDSEPELPSMTKEAIASHKADSGSSDNEVESDHESKSSSKKLKENAKEEEGGEEEEEDEYVVEKVLKHRMARKGGGYEYLLKWEGYDDPSDNTWSSEADCSGCKQLIEAYWNEHGGRPEPSKRKRTARPKKPEAKEPSPKSRKTDEDKHDKDSNEKIEDVNEKTIKFADKSQEEFNENGPPSGQPNGHIESDNESKSPSQKESNESEDIQIAETPSNVTPKKKPSPEVPKLPDNRELTVKQVENYDSWEDLVSSIDTIERKDDGTLEIYLTWKNGAISHHPSTITNKKCPQKMLQFYESHLTFRENE
3 | no binding | Shf1 MYTH prey (protein, UniProt Q9UUI2 1-165) MSSRRNDYHYDGNDHQYRSPLKSNVDQNSFYESSYRSRQSYHQRTKTPRSSYDSPSSSTNSKEHNSPYHYRVPSNNSTRASFGAASTDTNVELPKINLPDSSLSSKLQSCKSACENSSQSLLNVEQQYAQQVHFWEKIRTDIYREGLRSDAAVKSLNDFVNNVSF
4 | no binding | Mmi1 MYTH prey (protein, UniProt O74958 1-488) MSNTNFSTSRSSKSIPELPNLEALRSLWPPPSLNESGDTRSVWTTHTGEPVASSVLSTSGSNNFSSPLKRPAPESHDAPIGRRLMVDDPRLIKHGKYDFSRHCTDYGHSYEWPYFRSLRRESMLYHTSGSYPESQPPYSSYSTDAPHYYHAGSESSAYYDSRSRLHGIQPPPKRRTLSPPPRRLADPVVVGSSRYVEEEVYRRPPYTLASEVPSSASAYQAGYSSYPVRSSPQLSHEDTRHGIASSGSTRYPFVPANTRASHSPSLLEPYAHSLPSSVAPVGAYPEKSSYLLSNSSNDSASRKEKPKARASTPPPLNFSRASEHRNEKGERISMINPRVVLDENGISHRSRYFIMLCDNETAIAHAKKTSIWAVKKDSSKRISDAYKKASVYFIFVAQQTYNALGYAQVVSDLNSTELPFWSDSSHAGGVRIKWIKTCNLFSAEISEIVSHMDHGSEARDGMEMMYDEGSRLCTLINYAIMKRIGRDR
5 | no binding | Brl1 MYTH prey (protein, UniProt Q1MTQ0 1-692) MSVVNESRKRRRLIHSEKETRRLDLGEEDDLELFQKEAAWRRSREYEHLTVLEKKLYEYWESLVLKLDHYVAAALENHEQSFEELEKITASLYQPDDNLQTLDLSLAEFSLIKDAQNYLNKYASYFQAHEPTLQKLAKFGSFKLKETPNVHEWIDQRQVHFTSMINYRTSQLKLALLKRKLSFFREALNSAELEWKRVQQDQLTSASERSIENIADDIPASEPKAILENGEGCLNDNDNISKLKNNFQSQADLMQANINSKLDELSQKSTRAAQLYVDIMGITDERVSREPHYLELKGVLSSNEEKIESINRDLSSLFEDIQFFISQRTKRQKDIIDLKLACVKEKQQLIKTLESSLTQIRNERDSLVAKQQMQYTNNLFFDDMMLLLSNLSNARVAILEGYSNRLCIWDRIERSKTGEMNNVLDEKEEISASSALEKLIKNNSCLEAELPSMYAAFDQSQSRLLKKYEELETKEKKALEMHYEKARATQKYFAAMKARDILMTEKKTLKLAENKEHDYIGKLQEREHALTKYESSLKAELEVYKQIKEIYGKHSVEVLTEDKHLQVKQTKLTQKLEDLIESVQKSGEKLMIMHQKLFHLQEEHTILSIKASYNKKESHLINQAYETQEAQVYKGMLKCSVCNFSNWKSKLIPNCGHAFCSNCMEPFYEHKTSTCPQCETPFSVSDILTIHL
6 | no binding | Pcu4 MYTH prey (protein, UniProt O14122 1-734) MPPEAKRIVVKGFDPRKSRQRQETYYVTMIDRLNMALQVVMAGLGLKTGYQELYSGVENLTRADQASRCFNILQHHMSSGIQLLKDSAESFIQLEGTETDTNACTVVVGCWNKWLERVEIVQNIFYYMDKTFLSHHPDYPTIEELSLSLFREKLMAVKNIQIPFLNSLLQSFENLHSSKSTDHAYLQDAMLMLHRTEMYSSVFVPMYLVMLSRFYDTESSQKIQELPLEEYLEYAMSSLEREDAYVEKFDIVRDKKSIRETVQRCLITSHLDTLTKGISQFIEKRDAHSCKLLYALLQFNHETEYLIQPWSDCLVDVGFKLVNDESKDDTLVQELLSFHKFLQVVVDESFLHDETLSYAMRKAFETFINGAKGSQREAPARLIAKYIDYLLRVGEQASGGKPLKEVFSEILDLFRYIASKDIFEAYYKLDIAKRLLLNKSASAQNELMLLDMLKKTCGSQFTHSLEGMFRDVNISKEFTSSFRHSKAAHNLHRDLYVNVLSQAYWPSYPESHIRLPDDMQQDLDCFEKFYLSKQVGKKISWYASLGHCIVKARFPLGNKELSISLFQACVLLQFNNCLGGEGISYQDLKKSTELSDIDLTRTLQSLSCARIRPLVMVPKSKKPSPDTMFYVNEKFTDKLYRVKINQIYLKEERQENSDVQEQVVRDRQFELQASIVRVMKQKEKMKHDDLVQYVINNVKDRGIPLVSDVKTAIEKLLEKEYLEREDNDIYTYVT
7 | no binding | Ago1 MYTH prey (protein, UniProt O74957 1-834) MSYKPSSEIALRPGYGGLGKQITLKANFFQIISLPNETINQYHVIVGDGSRVPRKQSQLIWNSKEVKQYFGSSWMNSVYDGRSMCWSKGDIADGTIKVNIGSESHPREIEFSIQKSSKINLHTLSQFVNSKYSSDPQVLSSIMFLDLLLKKKPSETLFGFMHSFFTGENGVSLGGGVEAWKGFYQSIRPNQGFMSVNVDISSSAFWRNDSLLQILMEYTDCSNVRDLTRFDLKRLSRKFRFLKVTCQHRNNVGTDLANRVYSIEGFSSKSASDSFFVRRLNGEEQKISVAEYFLENHNVRLQYPNLPCILVKNGAMLPIEFCFVVKGQRYTAKLNSDQTANMIRFAVQRPFERVQQIDDFVHQMDWDTDPYLTQYGMKIQKKMLEVPARVLETPSIRYGGDCIERPVSGRWNLRGKRFLDPPRAPIRSWAVMCFTSTRRLPMRGIENFLQTYVQTLTSLGINFVMKKPPVLYADIRGSVEELCITLYKKAEQVGNAPPDYLFFILDKNSPEPYGSIKRVCNTMLGVPSQCAISKHILQSKPQYCANLGMKINVKVGGINCSLIPKSNPLGNVPTLILGGDVYHPGVGATGVSIASIVASVDLNGCKYTAVSRSQPRHQEVIEGMKDIVVYLLQGFRAMTKQQPQRIIYFRDGTSEGQFLSVINDELSQIKEACHSLSPKYNPKILVCTTQKRHHARFFIKNKSDGDRNGNPLPGTIIEKHVTHPYQYDFYLISHPSLQGVSVPVHYTVLHDEIQMPPDQFQTLCYNLCYVYARATSAVSLVPPVYYAHLVSNLARYQDVTADDTFVETSEASMDQEVKPLLALSSKLKTKMWYM
8 | no binding | Chp1 MYTH prey (protein, UniProt Q10103 1-960) MVSVKPLPDIDSNEGETDADVYEVEDILADRVNKNGINEYYIKWAGYDWYDNTWEPEQNLFGAEKVLKKWKKRKKLIAKGLLEPFDAEDNEAKKMKREKEILRQQRQKRKSELTQLSQKVKEKFKKMRKKPARRIVTIANDEEEEDDQTMDEDAFERKSMQGELKERNLTDKTSTLSTSFGETSPDVNPFYLSEWPTVTDSILLSKSLSSDAIPLKNGEIKSTMLMPSDSDNSVPGIQNSNNLENTGAFVENANSPQSNTPLSTFRHSSPLSLSPVITSDNDVANSLFFSNSTPLPSSLKIKKEAPKLETHTILVSDNSGSLTKQDILSYFAFIKGNIEVFFLKSPKKDKVCNMAYIQFDSIEQAKLAYDKGHPSWHVTLVKGKISTDMEECKVSKSILKTTPSKKANARSVSFTQTTTDTLSESEKFASNVDLDENFDFNVNVTNEDAKQLKKSVIGSSWTTVNNDWNSVSKSDQTFENDGASKVVPAGNITLNSDNSLHHSISESEDLSSASTLSDYFRFVLRVGKSLYYAGELSFDISKLKAETEHQQLLRSLVSCKQVDVLRFVTSQYLEVFGTCLTKVLSGSLCIRSDVDMTHFKNILNRGNGAGIVLGSNYTLLLFTEDNNALMNLYDCQGQSNSPFWMVIFEPLESILVEWSAKNLRPKKPYHKSQSYLSYLLQLGHIDLHKIGAFQATQILIVSKQPSPEAEELEDTFREAAIPTFRGLEIPESLFLSQNVFVFLNVSLEDDFDQLQFLTLAKRKSCKFFLFGLSLPLKSPNDSHVGTDFKKNNEPLDKLTYSQYLRPMFPKGGVVSVTLSALIKTPRLLELISPFLEIKKDSWILILPPSIVDMVKSYFVTNNPDKSLLEIQNLLNTLQRYLTNPALKNVTLYQDWDIVIDDSADVSLASTLQLYQKKNYDKYRRFVLIHELKNELTPVNGLDIVDYDEFKETFMRAIGLK
9 | binds weakly | Sec13 MYTH prey (protein, UniProt O94319 1-297) MTTVDTQHDDMIHDAILDYYGKRLATCSSDQTIKVFSIENNQQTLLETLRGHSGPVWQLGWAHPKFGTILASASYDGHVIVWRETGGVWSELMDHTAHQASVNAVSWAPHEYGALLACASSDGKVSVLEFKDDGSCDTRIFTAHEPGCNAVCWSPPSLSGSVVGQSPAAGPKKLATAGCDNLVKIWAFDAGVNNWILEDTLAGHVDWTRDVAWAPSVGLTKTYLASASQDKNVFIWTKEGDGPWQKTPLTEEKFPDIAWRVSWSLSGNILAVSCGDNKVYLFKESQNKWQLLNELSN
